Test results taken from the supplement of paper PMC11417369.
The other results are listed elsewhere or left out.

tested on: PfSIP2 AP2 domain 1 (GST-tagged); assay: gcPBM binding intensity (ln(normalized median fluorescence intensity)); higher = stronger DNA binding
In short: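 Each value is the highest Masliner-normalised natural-log median intensity across replicate spots of either orientation of a probe. The probes were primer-extended double-stranded 36-bp intergenic genomic sequences on an Agilent 4 × 180k array, alongside negative controls, exposed for 1 h to GST-tagged P. falciparum DNA-binding domains expressed in E. coli. Bound protein was picked up with Alexa488 anti-GST antibody and scanned at 488 nm.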

Row | Sequence | gcPBM binding intensity (ln)
1 | GAAAATAAAATAAATGCATGTAAATTTAATGTAATG [TGCATGCA_site996] | 6.87
2 | AAAAAAAAAAAATGTGCATGCTATATATATATATAT [TGCATGCA_site727] | 9.58
3 | TTAACAAATAGACACACACACACACGCAAAAAAAAA [CACACA_site6387] | 7.14
4 | ATATATATATTTACATGTACACATCTATATATAAAC [XGTACX_site5581] | 8.31
5 | TTTTTTTTTCATTATTGTACATTGAAACTTCATTTT [XGTACX_site6041] | 6.69
6 | GCATAAATCAAACACACACACATATATATATATATA [CACACA_site2422] | 9.73
7 | AATGAATATAGTACTGAATGTAATTTAAGGTTTTCC [CACACA_negctrl_site1548] | 6.77
8 | TATAATGGATGCTAGCTGCACTAATAAGCAAAAATA | 8.3
9 | GATGATATATATTAGCGTACATGTATATATACCATT [XGTACX_site6404] | 7.06
10 | TAAATGAGAAGGACTGCACACTAAAATGGAAGGAGA [CACACA_site8449] | 7.6
11 | AAAATTTCAAATAACACACACTAATATATATCTGTA [CACACA_site4904] | 6.98
12 | GTGGACGAAATAGTTGTAAATTTATGTGCAAACCTC [XGTACX_negctrl_site564] | 7.4
13 | ATATATATATCATATTGTACATACTTGTATTTATAT [XGTACX_site2432] | 8.72
14 | TCCTTACCTATTAAAGCATGCTCGAATATATATTTT [TGCATGCA_site53] | 7.38
15 | TATATTAAATATTACACACATACATTTAGTGTCAAA [CACACA_site1990] | 7.01
16 | TGGGAGCACAGACACACACACACACCGATATATATA [CACACA_site8001] | 7.3
17 | AACAAAATAAATGTATGTACATATATATATATATAT [XGTACX_site7974] | 9.68
18 | ACTTATAAAATAACATGTACAAATATTTATTATATA [XGTACX_site133] | 7.25
19 | AAAAAAAAAAGGTGTACATGCAAAATAAATTCTTAA [TGCATGCA_site556] | 6.95
20 | TATGGTAACATATGCTGTACAATATAATATGTTTAA [XGTACX_site1601] | 6.94
21 | TAAACATAAATATACACACAAACATATATGTATTTT [CACACA_site1214] | 6.94
22 | AAATTATAAATACCTACACACTTATCAAAATAAATT [CACACA_site5280] | 6.86
23 | AAAAAAAAAAAACACACACACACACCGACAAAATAT [CACACA_site8411] | 7.28

Row | Sequence | gcPBM binding intensity (ln)
24 | AATATTTTTTTATAAACACACATATATATAAATATA [CACACA_site3524] | 6.86
25 | TAATAATTTATATATGCATGTCAAAATAATATTAAA [TGCATGCA_site12] | 7.06
26 | TATATAAATATAATATGTACATATAATATGTATATA [XGTACX_site8120] | 6.97
27 | TATATATTTTTATGTGTGCACTGTTTCATAAAAGAA | 10.9
28 | TTATATGAAAAAATATGTACGTATAATGAGAAATAT [XGTACX_site8987] | 7.5
29 | AAATAGATAAACTAAACACACAAAAAAAAAAAAAAT [CACACA_site1179] | 6.69
30 | AAAATAACGAGTCAAACACACATATTTATATTTATA [CACACA_site7050] | 6.83
31 | TAATATAACTACATAACACACGAAAATATATGAATC [CACACA_site3628] | 7.23
32 | GTTATAAATGCATATACACACATACGTACATACATA [CACACA_site7655] | 7.4
33 | TCATTAATCAGGTATGCATGCATAACTATTAAAAAT [TGCATGCA_site90] | 6.83
34 | TCTTTTTTTTTTATTTGTACTTATTTTTTTCAAAAA [XGTACX_site3403] | 7.36
35 | AATAATAATATATGTAGTACACATTTCCATTATGTT [XGTACX_site3708] | 7.07
36 | AAAAAAAAAAAAAAAACACACATTTCTTTTTCATAT [CACACA_site11] | 7.64
37 | TTAATTATATATAAAAGTACTTATTTTTCCATATAA [XGTACX_site3033] | 6.95
38 | TAATAGGAAATTATAGGTACACATACAAATAAATAA [XGTACX_site3587] | 6.9
39 | AGAAAAAATAAAAATAGTACTCAAAAAATTATGAAT [XGTACX_site4908] | 6.96
40 | ACATAAATAATAAAAACACACATATGTACAGATATA [CACACA_site5112] | 7.12
41 | ATGTAGATATATATATGTACTAATTAGTAGTTTACG [XGTACX_site6275] | 7.24
42 | AATGGTACATGATACACACACGCACATATATATATT [CACACA_site3425] | 6.9
43 | AGAAAAAAAAAACACACACACACACCCTCAATATAA [CACACA_site39] | 6.94
44 | ATTTATATATTGCCCACACACATGTGATTATTTATA [CACACA_site1714] | 7.4
45 | ATATTAAAAAGAAGTGTGCGCAAAACATTAACTTGA | 7.32
46 | TAAATAAACCTGACTTGTACATGTAAAATAAATATA [XGTACX_site1667] | 6.99

Row | Sequence | gcPBM binding intensity (ln)
47 | AATGGATGGTCCAAATGTACATATATATATATATAT [XGTACX_site4800] | 9.35
48 | TATGCACCCAGACACACACACACAACTAAAAAATAA [CACACA_site2567] | 10.7
49 | TTTGTAGATTTTGTAACACACACATATATATACATA [CACACA_site8757] | 6.97
50 | AAAATATAATATATTGCACACAAAAAGTGAATTATT [CACACA_site8489] | 6.95
51 | TACCATTATTTTAAGTGTACATACTAATTTATATAT [XGTACX_site6548] | 7.21
52 | TCTTTCTATTTATAATGTACTCAAAATTATTCTATA [XGTACX_site4867] | 7.13
53 | AAATTGTGTGAAATATATTAATATTATTATTATTAT [TGCATGCA_negctrl_site189] | 6.98
54 | TTTTACCACTAAAAATGTACAAAAAAAAAAAAAAAA [XGTACX_site4226] | 6.91
55 | CCTTGCATTTATTATACACACACAAAAAAATATATA [CACACA_site7964] | 7.8
56 | TTGCAAATATATGGTTGTACTCAAAAAAAAAAAAAA [XGTACX_site6975] | 7.03
57 | CAAAAATAACGAGTCAAACACACATATATATATATA [CACACA_site2038] | 9.22
58 | AAAGGGATAACACCAAAAAAAATAAAAATAAAAATA [GTGCAC_negctrl_site680] | 7.11
59 | TCAAGAATTTTAAAGAGTACATAAAACAATAATATA [XGTACX_site3923] | 6.91
60 | ATGCGTATACTAAGAACACACAAGTTACTTGGTGTT [CACACA_site1625] | 6.71
61 | ATTAATGATTTTTGTTGTACATTATTAATTTACATT [XGTACX_site544] | 7
62 | TATTTTATATTTCATTTGTTATTTTTCTTGGTTCTA [CACACA_negctrl_site33] | 6.88
63 | CATACATACATACATACACACATACATATGTATTTA [CACACA_site5384] | 7.98
64 | CAACACTTTCAAAAATGTACGTACAAATGTATTTTA [XGTACX_site6713] | 7.11
65 | AGTTTCCATATGAGGTGTACATATATAATTTATTAT [XGTACX_site2369] | 7.32
66 | ACAAAATAAAGACACACACACAAACACAAAAAAATA [CACACA_site7568] | 7.14
67 | TTTTTTTTCTAAATTATATGAAAATATATGTTATGT [GTGCAC_negctrl_site85] | 7.01
68 | TACATAAACATTTATACACACATTATAAATACATAT [CACACA_site4386] | 7.08
69 | ACAATTTTAAAATGAACACACATGTTTTTCTTACTT [CACACA_site1014] | 7.02

Row | Sequence | gcPBM binding intensity (ln)
70 | ATTTTCTATTTTATTTGTACGTAATTTAATTTTTTT [XGTACX_site3609] | 7.5
71 | TCCCAATTTCTATCCTGTACAGACATAAATATATAC [XGTACX_site5937] | 7.4
72 | AAGTAATTTGTTGACACACACACACGCATACCTATA [CACACA_site7140] | 7.15
73 | ATAAAGATTAATAAAATAAAATTCCGCAAACATATA [CACACA_negctrl_site244] | 6.84
74 | TTTTGAAATTTTTGTGTTTTTCCTTTTTATTTTATA [CACACA_negctrl_site1740] | 6.44
75 | ATAAATCCATGTAACTGTACTTTTTTTTTTTTTTTT [XGTACX_site7373] | 7.44
76 | ATTATATATATATATATATATATATATATATTATAT [CACACA_negctrl_site234] | 7.97
77 | AATGTAATATAAATATGTACATATAAACTATATATA [XGTACX_site6871] | 7.03
78 | ACTTATGATTTATTTTGTACATATATACTATTCCTG [XGTACX_site5275] | 7.21
79 | GTTTTAAAACAAATATGTACACATAATATAGGAAAG [XGTACX_site1803] | 7.63
80 | ACAAATACTAACAACGCATGTAAGCCTACAATAAAT [TGCATGCA_site551] | 6.86
81 | GCTCCTTTTACCATCGCACACGATAAAAAAAAATAA [CACACA_site3255] | 8.13
82 | ATCCTCTTTTTAAGTTGTACAGGGTCGAAAAAAAAA [XGTACX_site6852] | 7.27
83 | GATTATTATTATAAGGGTACAAATATTTAATAAAAA [XGTACX_site7144] | 7.03
84 | CATGTCAAAATTATACGTACATATATAAGTTCCATT [XGTACX_site6331] | 7.08
85 | AAAAAAAAATAAAAAAGTACATTCATTTTATAAGAT [XGTACX_site3507] | 6.95
86 | AGATAGCTATTAAAAAGTACAAAAAAATATATATAT [XGTACX_site6289] | 8.24
87 | ATAAATACAGATATTACACACTTCTTATTCTAAGAA [CACACA_site5640] | 6.81
88 | TATTTTATATAAAGGTGTACTTATACAAAAATATAT [XGTACX_site7435] | 7.22
89 | TATACAGGAATATTTTTACACACTAATAATTATAAA [CACACA_site8477] | 7.02
